# The other results are listed elsewhere or left out.
# B1: LBL-152 (Laetiporus bicolor), B0D650 (protein)
# chain: MSNEYNPPLGIAFRLCGLASDRVLFSRVSPSPEVFHHPKSEVYPDQWFVAIPGSGQNAGCYAIKSKNTGKVLFSRMSPDPRVGHIDGDGKYPDNWFKFEAGSGKYAGYFRLRAVASDTVLVSRTSTGTDTQVINYPATSAKYDDQYFTILFDHHHHHH
# Tests used:
# Experiment in all cases: glycan array binding signal (z-score within array); higher = stronger binding
# Settings in all cases: glycan notation: IUPAC condensed, linker removed
# [1] = molecular target: Fuc(a1-2)[GalNAc(b1-3)]Gal
# How it was run: (§1)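 The binding signal is a Z-score computed within each array. Data were drawn from 3228 arrays in the Consortium for Functional Glycomics database, restricted to those with a known protein sequence. Scores were averaged over arrays of the same protein sequence at different concentrations or buffers, and over linkers, and negative values can be taken as non-binding.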
# [2] = molecular target: Fuc(a1-3)GlcNAc
# How it was run: as §1
# [3] = molecular target: Fuc(a1-3)[Gal(b1-4)]Glc6S
# How it was run: as §1
# [4] = molecular target: Fuc(a1-3)[Gal(b1-4)]GlcNAc
# How it was run: as §1
# [5] = molecular target: Fuc(a1-3)[Gal(b1-4)]GlcNAc(b1-2)Man
# How it was run: as §1
# [6] = molecular target: Fuc(a1-3)[Gal(b1-4)]GlcNAc(b1-2)Man(a1-3)[Fuc(a1-3)[Gal(b1-4)]GlcNAc(b1-2)Man(a1-6)]Man(b1-4)GlcNAc(b1-4)GlcNAc
# How it was run: as §1
# [7] = molecular target: Fuc(a1-3)[Gal(b1-4)]GlcNAc(b1-2)Man(a1-3)[Fuc(a1-3)[Gal(b1-4)]GlcNAc(b1-2)Man(a1-6)]Man(b1-4)GlcNAc(b1-4)[Fuc(a1-6)]GlcNAc
# How it was run: as §1
# [8] = molecular target: Fuc(a1-3)[Gal(b1-4)]GlcNAc(b1-3)Gal(b1-3)[Fuc(a1-4)]GlcNAc
# How it was run: as §1
# [9] = molecular target: Fuc(a1-3)[Gal(b1-4)]GlcNAc(b1-3)Gal(b1-4)[Fuc(a1-3)]GlcNAc
# How it was run: as §1
# [10] = molecular target: Fuc(a1-3)[Gal(b1-4)]GlcNAc(b1-3)Gal(b1-4)[Fuc(a1-3)]GlcNAc(b1-3)Gal(b1-4)[Fuc(a1-3)]GlcNAc
# How it was run: as §1
# [11] = molecular target: Fuc(a1-3)[Gal(b1-4)]GlcNAc(b1-3)GalNAc
# How it was run: as §1
# [12] = molecular target: Fuc(a1-3)[Gal(b1-4)]GlcNAc(b1-6)GalNAc
# How it was run: as §1
# [13] = molecular target: Fuc(a1-3)[Gal(b1-4)]GlcNAc(b1-6)[Gal(b1-3)GlcNAc(b1-3)]Gal(b1-4)Glc
# How it was run: as §1
# [14] = molecular target: Fuc(a1-3)[Gal(b1-4)]GlcNAc6S
# How it was run: as §1
# [15] = molecular target: Fuc(a1-3)[Gal3S(b1-4)]Glc
# How it was run: as §1
# [16] = molecular target: Fuc(a1-3)[Gal3S(b1-4)]GlcNAc
# How it was run: as §1
# [17] = molecular target: Fuc(a1-3)[Gal3S(b1-4)]GlcNAc6S
# How it was run: as §1
# [18] = molecular target: Fuc(a1-3)[GalNAc(b1-4)]GlcNAc
# How it was run: as §1
# [19] = molecular target: Fuc(a1-3)[GalNAc(b1-4)]GlcNAc6S
# How it was run: as §1
# [20] = molecular target: Fuc(a1-4)GlcNAc
# How it was run: as §1
# [21] = molecular target: Fuc(b1-3)GlcNAc
# How it was run: as §1
# [22] = molecular target: Gal(a1-2)Gal
# How it was run: as §1
# [23] = molecular target: Gal(a1-3)Gal
# How it was run: as §1
# [24] = molecular target: Gal(a1-3)Gal(b1-3)GlcNAc
# How it was run: as §1
# [25] = molecular target: Gal(a1-3)Gal(b1-3)GlcNAc(b1-2)Man
# How it was run: as §1
# [26] = molecular target: Gal(a1-3)Gal(b1-3)GlcNAc(b1-2)Man(a1-3)[Gal(a1-3)Gal(b1-3)GlcNAc(b1-2)Man(a1-6)]Man(b1-4)GlcNAc(b1-4)GlcNAc
# How it was run: as §1
# [27] = molecular target: Gal(a1-3)Gal(b1-3)GlcNAc(b1-3)GalNAc
# How it was run: as §1
# [28] = molecular target: Gal(a1-3)Gal(b1-3)GlcNAc(b1-6)GalNAc
# How it was run: as §1
# [29] = molecular target: Gal(a1-3)Gal(b1-3)[Fuc(a1-4)]GlcNAc(b1-2)Man(a1-3)[Gal(a1-3)Gal(b1-3)[Fuc(a1-4)]GlcNAc(b1-2)Man(a1-6)]Man(b1-4)GlcNAc(b1-4)GlcNAc
# How it was run: as §1
# [30] = molecular target: Gal(a1-3)Gal(b1-4)Glc
# How it was run: as §1
# [31] = molecular target: Gal(a1-3)Gal(b1-4)GlcNAc
# How it was run: as §1
# [32] = molecular target: Gal(a1-3)Gal(b1-4)GlcNAc(b1-2)Man
# How it was run: as §1
# [33] = molecular target: Gal(a1-3)Gal(b1-4)GlcNAc(b1-2)Man(a1-3)[Gal(a1-3)Gal(b1-4)GlcNAc(b1-2)Man(a1-6)]Man(b1-4)GlcNAc(b1-4)GlcNAc
# How it was run: as §1
# [34] = molecular target: Gal(a1-3)Gal(b1-4)GlcNAc(b1-3)GalNAc
# How it was run: as §1
# [35] = molecular target: Gal(a1-3)Gal(b1-4)GlcNAc(b1-6)GalNAc
# How it was run: as §1
# [36] = molecular target: Gal(a1-3)Gal(b1-4)[Fuc(a1-3)]GlcNAc
# How it was run: as §1
# [37] = molecular target: Gal(a1-3)Gal(b1-4)[Fuc(a1-3)]GlcNAc(b1-2)Man(a1-3)[Gal(a1-3)Gal(b1-4)[Fuc(a1-3)]GlcNAc(b1-2)Man(a1-6)]Man(b1-4)GlcNAc(b1-4)GlcNAc
# How it was run: as §1
# [38] = molecular target: Gal(a1-3)GalNAc
# How it was run: as §1
# [39] = molecular target: Gal(a1-3)[Gal(a1-4)]Gal(b1-4)GlcNAc
# How it was run: as §1
# [40] = molecular target: Gal(a1-4)Gal(b1-3)GlcNAc(b1-2)Man(a1-3)[Gal(a1-4)Gal(b1-3)GlcNAc(b1-2)Man(a1-6)]Man(b1-4)GlcNAc(b1-4)GlcNAc
# How it was run: as §1
# [41] = molecular target: Gal(a1-4)Gal(b1-4)Glc
# How it was run: as §1
# [42] = molecular target: Gal(a1-4)Gal(b1-4)GlcNAc
# How it was run: as §1
# [43] = molecular target: Gal(a1-4)Gal(b1-4)GlcNAc(b1-2)Man(a1-3)[Gal(a1-4)Gal(b1-4)GlcNAc(b1-2)Man(a1-6)]Man(b1-4)GlcNAc(b1-4)GlcNAc
# How it was run: as §1
# [44] = molecular target: Gal(a1-4)Gal(b1-4)GlcNAc(b1-3)Gal(b1-4)Glc
# How it was run: as §1
# [45] = molecular target: Gal(a1-4)GlcNAc
# How it was run: as §1
binder,measurement,setting,value
B1,glycan array binding signal (z-score),[1],-0.157
same,glycan array binding signal (z-score),[2],-0.155
same,glycan array binding signal (z-score),[3],-0.156
same,glycan array binding signal (z-score),[4],-0.157
same,glycan array binding signal (z-score),[5],-0.155
same,glycan array binding signal (z-score),[6],-0.154
same,glycan array binding signal (z-score),[7],-0.145
same,glycan array binding signal (z-score),[8],-0.157
same,glycan array binding signal (z-score),[9],-0.151
same,glycan array binding signal (z-score),[10],-0.149
same,glycan array binding signal (z-score),[11],-0.156
same,glycan array binding signal (z-score),[12],-0.155
same,glycan array binding signal (z-score),[13],-0.151
same,glycan array binding signal (z-score),[14],-0.146
same,glycan array binding signal (z-score),[15],-0.154
same,glycan array binding signal (z-score),[16],-0.15
same,glycan array binding signal (z-score),[17],-0.157
same,glycan array binding signal (z-score),[18],-0.141
same,glycan array binding signal (z-score),[19],-0.156
same,glycan array binding signal (z-score),[20],-0.151
same,glycan array binding signal (z-score),[21],-0.156
same,glycan array binding signal (z-score),[22],-0.155
same,glycan array binding signal (z-score),[23],-0.153
same,glycan array binding signal (z-score),[24],-0.157
same,glycan array binding signal (z-score),[25],-0.155
same,glycan array binding signal (z-score),[26],-0.153
same,glycan array binding signal (z-score),[27],-0.158
same,glycan array binding signal (z-score),[28],-0.163
same,glycan array binding signal (z-score),[29],-0.152
same,glycan array binding signal (z-score),[30],-0.155
same,glycan array binding signal (z-score),[31],-0.156
same,glycan array binding signal (z-score),[32],-0.152
same,glycan array binding signal (z-score),[33],0.013
same,glycan array binding signal (z-score),[34],-0.152
same,glycan array binding signal (z-score),[35],-0.162
same,glycan array binding signal (z-score),[36],-0.155
same,glycan array binding signal (z-score),[37],-0.139
same,glycan array binding signal (z-score),[38],-0.15
same,glycan array binding signal (z-score),[39],-0.137
same,glycan array binding signal (z-score),[40],-0.153
same,glycan array binding signal (z-score),[41],-0.14
same,glycan array binding signal (z-score),[42],-0.145
same,glycan array binding signal (z-score),[43],-0.132
same,glycan array binding signal (z-score),[44],-0.165
same,glycan array binding signal (z-score),[45],-0.153

# From the supplement of paper PMC8728848
